Test results from PubChem BioAssay AID1347417 (National Center for Advancing Translational Sciences (NCATS), 2020).
The whole screen tested about 120,000 compounds, of which about 5,300 (4.4%) were called active. The shares of active, inactive and inconclusive entries below differ from those in the screen. The call rests on the fitted dose curve; in most records, active means well fitted inhibition curve with a large enough effect; inconclusive means small, poorly fitted or top-dose-only effect; inactive means no such curve, though single readings can be large or run the other way. A potency beside an inconclusive call is a rough fit, not a confirmed value.

Test: qHTS Primary assay for Inhibitors of Plasmodium falciparum Dd2 growth in vitro; further: nearly all actives have a fitted effect of over 65% in size;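 on activity, negative = inhibition: plate controls were DMSO vehicle for no effect and reference drug for full effect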
Details: P. falciparum Dd2 growth, SYBR Green, 72 h; activity, negative = inhibition: at 28.9 µM (top of the series) unless noted; series mostly up to 28.9 µM
Method in brief: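 Infected erythrocytes (Dd2, 0.3% parasitemia, 2.5% hematocrit final) are added to compound in RPMI-1640/Albumax II medium, grown 72 h at 37C in low oxygen, then lysed with saponin/Triton-X containing SYBR Green and read by fluorescence.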
Potency means the concentration at half of the fitted maximal effect; tags describe the fitted curve by direction and shape.

| SMILES | Potency | activity, negative = inhibition |
| --- | --- | --- |
| O=C(Cc1c[nH]c2ncc(-c3cccnc3)cc12)NCCc1ccccn1 | inactive |  |
| O=C(Nc1nccs1)[C@@H]1C[C@H](c2ccc(F)cc2)N(Cc2ccccc2Cl)C1 | inconclusive: 4.47 µM [inhibitor, full curve, poor fit] |  |
| Cc1ccc(NC(=O)COc2ccc(-c3nnc4n3CCCC4)cc2)cc1F | inconclusive: 3.98 µM [inhibitor, single point] |  |
| O=C1Cc2c(-c3ccccc3Cl)n[nH]c2CN1CC1CC1 | inconclusive: 31.6 µM [inhibitor, single point] |  |
| Cc1nc(C(C)C)sc1C(=O)N1C[C@@H](C)[C@](O)(C2CCC2)C1 | inactive |  |
| COc1cccc(CN2CCOC3(CCN(Cc4ccc(OC)nc4)CC3)C2=O)c1 | inconclusive: 11.2 µM [inhibitor, single point] |  |
| O=C1NCCCCCCN(C(=O)c2cc(CN3CCOCC3)on2)[C@H]2CCCC[C@@H]12 | inconclusive: 20 µM [inhibitor, single point] |  |
| O=C(c1cccnc1)N1CCC(N2C(=O)C(OCC3CC3)C23CCCCC3)CC1 (stereo not given) | inconclusive: 7.94 µM [inhibitor, single point] |  |
| Cc1ccc(-n2ncc3c(NCc4ccccc4)ncnc32)cc1C | inconclusive: 11.2 µM [inhibitor, single point] |  |
| CCc1nn(CCCC(=O)NCc2ccc(OC)c(OC)c2)c(=O)c2cc3occc3n12 | inactive |  |
| CN(C)[C@@H]1C[C@@H](CO)N(C(=O)c2csc3nc(-c4ccccc4Cl)cn23)C1 | inconclusive: 11.2 µM [inhibitor, single point] |  |
| O=C1CCN(Cc2ccc(C(F)(F)F)cc2)CCCC(c2nc(-c3cccnc3)no2)CCN1 (stereo not given) | inconclusive: 1.58 µM [inhibitor, full curve] |  |
| CC(C)c1noc(-c2cn(C3CCCN(C(=O)c4ccc(Cl)cc4)C3)nn2)n1 (stereo not given) | inconclusive: 15.8 µM [inhibitor, single point] |  |
| Cc1cccc(N2CCN(C(=O)c3ccc4c(c3)N(Cc3ccccc3F)C(=O)c3ccccc3S4=O)CC2C)c1 (stereo not given) | inconclusive: 11.2 µM [inhibitor, single point] |  |
| COc1cc2c(=O)c(C(=O)c3ccc(C)c(C)c3)cn(Cc3ccccc3)c2cc1OC | active: 12.6 µM |  |
| COCC(=O)NC[C@@H]1C=C(C)[C@H](CC(=O)N(C)Cc2ccccc2)C[C@H]1C(C)C | inactive |  |
| COCCOC1CCN(C(=O)c2cccc(OC)c2)CC1 | inactive |  |
| CCCN1CCc2[nH]cnc2C12CCN(C(=O)c1ccc(CSC)o1)CC2 | inconclusive: 0.251 µM [inhibitor, full curve, poor fit] |  |
| CCN(CCNC(=O)c1cc2c(s1)CN(C1CC1)C2)c1cccc(C)c1 | inactive |  |
| CCCCC(CC)CNC(=O)CCCc1nnc2n(CCC)c(=O)c3sccc3n12 (stereo not given) | inconclusive: 20 µM [inhibitor, single point] |  |
| CC(C)CN1C(=O)c2cccn2CC1CNC(=O)c1ccccc1 (stereo not given) | inconclusive: 0.316 µM [inhibitor, full curve, poor fit] |  |
| COc1ccc(NC(=O)CSc2nc3ccccc3[nH]2)cc1 |  | inconclusive: -66.9% [inhibitor] [at 5.79 µM] |

| SMILES | Potency | activity, negative = inhibition |
| --- | --- | --- |
| Cn1ccc2c(C(=O)NCc3cccnc3)nc(-c3ccc(F)cc3)cc21 | inconclusive: 12.6 µM [inhibitor, single point] |  |
| CCCCSc1nnc2n(-c3cccc(C)c3)c(=O)c3c4c(sc3n12)CCCC4 | inconclusive: 3.55 µM [inhibitor, partial curve] |  |
| O=C(COc1ccccc1Cl)Nc1nc2c(s1)CCCC2 | inactive |  |
| CN1C(=O)C(CC(=O)NCCc2c[nH]c3ccccc23)=C2CCCCC21 (stereo not given) | inconclusive: 8.91 µM [inhibitor, single point] |  |
| CCC(=O)Nc1cccc(C2OC(=O)N(Cc3ccc(C)cc3)C2C(=O)Nc2ccc(F)cc2)c1 (stereo not given) | inconclusive: 0.224 µM [inhibitor, full curve] |  |
| CC1=C[C@@H](CNCCN(C)C)[C@H](C(C)C)C[C@H]1Cc1nnc(-c2ccc(C)cc2)o1 | active: 2.24 µM |  |
| CCN1CCN(CCCNC(=O)CC2CCN(c3ccnc(NC)n3)CC2)CC1 | inconclusive: 8.91 µM [inhibitor, partial curve] |  |
| COc1ccc(-c2cn3c(n2)CO[C@@H](CNC2CCCC2)C3)cc1 | inactive |  |
| CCOc1cc(C2C(C(=O)OC)=C(C)NC3=C2C(=O)c2ccccc23)c(Br)cc1OC (stereo not given) | inconclusive: 17.8 µM [inhibitor, single point] |  |
| CC1=C[C@@H](CNC(=O)c2cccc(F)c2)[C@H](C(C)C)C[C@H]1CC(=O)NCc1cccnc1 | inconclusive: 11.2 µM [inhibitor, single point] |  |
| O=C(c1cccs1)N(Cc1cccnc1)c1nc2ccc(F)cc2s1 | inconclusive: 17.8 µM [inhibitor, single point] |  |
| Cn1cc(C(=O)NCC2CN([S+](=O)([O-])c3ccccc3Cl)CC23CN(c2ccccc2)C3)cn1 (stereo not given) | inconclusive: 1 µM [inhibitor, partial curve] |  |
| CC1CCN(C(=O)c2c(NC(=O)c3ccccc3F)sc3c2CCC(C(C)(C)C)C3)CC1 (stereo not given) | active: 8.91 µM |  |
| COCCNC(=O)N1CCN(Cc2ccco2)CC(C(=O)O)C1 (stereo not given) | inactive |  |
| CCOc1ccc(NC(=O)N2CCc3cc(OC)c(OC)cc3C2CNC(=O)c2ccco2)cc1 (stereo not given) | inconclusive: 5.01 µM [inhibitor, partial curve, poor fit] |  |
| FC(F)(F)c1ccc2nc([C@H]3CCN(Cc4ccc(Cl)cc4)C3)[nH]c2c1 | inconclusive: 22.4 µM [inhibitor, single point] |  |
| COc1ccccc1-c1cc([C@H]2CN3CC[C@H]2C[C@@H]3CNCc2cccc(C#N)c2)n(C)n1 | inactive |  |
| COc1cccc(C(=O)Nc2cc(-c3cn4cccnc4n3)ccc2C)c1OC | inconclusive: 12.6 µM [inhibitor, partial curve, poor fit] |  |
| CN(C)C[C@@H]1CN(Cc2ccccn2)C[C@H]1NS(=O)(=O)c1cccc(C#N)c1 | inconclusive: 11.2 µM [inhibitor, partial curve, poor fit] |  |
| COC[C@H]1CCCN1Cc1nc(C2(O)CCN(C(C)=O)CC2)cs1 | inactive |  |
| COc1ccccc1CNC(=O)c1c(OCC2CC2)cc(=O)n2c1CCCCC2 | inactive |  |
| Cc1ccc(-c2ccc3nnc(CNC(=O)c4cccc(C(F)(F)F)c4)n3n2)cc1 | inconclusive: 17.8 µM [inhibitor, single point] |  |

| SMILES | Potency | activity, negative = inhibition |
| --- | --- | --- |
| N#Cc1cccc(C(=O)Nc2ccc3c(N4CCOCC4)ncnc3c2)c1 | inconclusive: 2.82 µM [inhibitor, partial curve, poor fit] |  |
| COCCCNC(=O)c1ccc2nc(Cc3ccc(OC)cc3)oc2c1 | inactive |  |
| O=C1CC(c2ccccc2)N(CC2CCCCC2)CCCCCCN1 (stereo not given) | inconclusive: 7.08 µM [inhibitor, partial curve, poor fit] |  |
| Cc1cccc(C(=O)N2C(C(=O)NCC(C)C)COC23CCN(C(=O)c2ccc(F)cc2F)CC3)c1 (stereo not given) | inconclusive: 2.24 µM [inhibitor, full curve, poor fit] |  |
| Oc1ccc(-c2nc3ccccn3c2Nc2ccc3c(c2)OCCO3)cc1 | inconclusive: 10 µM [inhibitor, single point] |  |
| CCCCNS(=O)(=O)c1ccc2nc(-c3cccnc3)cc(C(=O)NCCC)c2c1 | inconclusive: 5.62 µM [inhibitor, partial curve] |  |
| CN(C(=O)Cn1ccn2nc(-c3ccc(F)cc3)c(CO)c2c1=O)c1ccccc1 | inactive |  |
| CO[C@H]1[C@H](NC(=O)Cc2cccnc2)c2ccccc2C12CCNCC2 | inactive |  |
| Cc1nn2c(c1-c1ccccc1Oc1ccccc1)N(Cc1cccc(C(=O)O)c1)CCC2 | inconclusive: 3.16 µM [inhibitor, single point] |  |
| CCn1cc(S(=O)(=O)c2ccc(OC)cc2)c(=O)c2cc(F)c(N3CCC(C)CC3)cc21 | inconclusive: 14.1 µM [inhibitor, partial curve, poor fit] |  |
| c1ccc(CC2=NOC3(CCN(C4CCCCC4)CC3)C2)cc1 | active: 10 µM |  |
| CCCN(CCC)CCCNC(=O)C1CCC(CNS(=O)(=O)c2cccc3nsnc23)CC1 (stereo not given) | inconclusive: 17.8 µM [inhibitor, single point] |  |
| Cc1ccc(CN(Cc2ccco2)C(=O)COc2c(C)cc(C)cc2C)cc1 | inconclusive: 10 µM [inhibitor, single point] |  |
| Cc1noc(C)c1-c1cc2cc(C(C)C)oc2c(NCCN2CCOCC2)n1 | active: 10 µM |  |
| O=C1NCCCCCCN(Cc2ccc(F)cc2F)[C@H]2CCC[C@@H]12 | inconclusive: 3.98 µM [inhibitor, full curve, poor fit] |  |
| Cc1c(CC(=O)N(C)C(C)C)c2c(n1Cc1ccccc1F)CCCC2=O | inconclusive: 17.8 µM [inhibitor, single point] |  |
| CCn1cc(C(=O)N2CCN(c3cc(Cl)ccc3C)CC2)c2cc(OC)c(OC)cc2c1=O | inconclusive: 0.708 µM [inhibitor, full curve, poor fit] |  |
| Cc1ccc(CN2CCSc3ccc(C(=O)Nc4ccc(Cl)cc4)cc32)cc1 | active: 7.94 µM |  |
| COC[C@@H]1CN(c2ncccn2)C[C@H]1C(=O)NCc1ccccc1OC | inactive |  |
| Cc1ccc(Nc2cc(C)nc3nc(Cc4ccc(Cl)cc4)nn23)cc1 | inconclusive: 17.8 µM [inhibitor, single point] |  |
| O=C1c2c(nc(CNc3ccc(F)cc3)n2Cc2ccccc2)NCCN1Cc1ccccc1 | inactive |  |
